Assay results: publication PMC5892938
This is one part of the list. At the low end of the ranking the order means little.

What follows are sequences tested against GST-SBP-SLBP (stem-loop binding protein) (UniProt Q14493) (assay: targeted RNA Bind-n-Seq). Conditions: RBNS binding buffer: 25 mM Tris pH 7.5, 150 mM KCl, 3 mM MgCl2, 0.1% Tween, 0.5 mg/mL BSA, 1 mM DTT; 27 nM protein, 750 pM RNA pool; temperature not stated; high values mean tight binding.
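Also: DESeq read counts versus GST-SBP nonspecific binding control pulldown.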

Sequence | binding signal (log2 fold change)
GGUCACGUCUCAAUCAACUCAACUUCCAGGGAAACCCCUGGCAUUCUCAACAGCUCGCAGUCAAG | 0.0059
GGUCACGUCUCAAUCAACUCUUUUCCAGGAGUUUACUCCUGUAAUUUCAACAGCUCGCAGUCAAG | 0.00294
GGUCACGUCUCAAUCAACUCUUUCGCAGGAGUUUACUCCUGGUAUCUCAACAGCUCGCAGUCAAG | 0.0913
GGUCACGUCUCAAUCAACUCCCUAGAGGGGGGGAAAACCCCUUUACCCUCGUUCUCAACAGCUCGCAGUCAAG | 0.184
GGUCACGUCUCAAUCAACUCCUCUGAGGGGGGGAAAACCCCUUUACCCUCUUUUUCAACAGCUCGCAGUCAAG | 0.0269
GGUCACGUCUCAAUCAACUCCUUCGAGGGGGGGAAAACCCCUUUACCCUCACCAUCAACAGCUCGCAGUCAAG | -0.61
GGUCACGUCUCAAUCAACUCAACGCCAGGAGUUUGCUCCUGUAUAUUCAACAGCUCGCAGUCAAG | 0.012
GGUCACGUCUCAAUCAACUCUUUUUCCAGGGAAAACCCUGGUAGUCUCAACAGCUCGCAGUCAAG | -0.0839
GGUCACGUCUCAAUCAACUCUAUCUCAGGAGUUUCCUCCUGUAAUCUCAACAGCUCGCAGUCAAG | -0.0108
GGUCACGUCUCAAUCAACUCUUCCUCCAGGGAAAACCCUGGUAUAUUCAACAGCUCGCAGUCAAG | 0.164
GGUCACGUCUCAAUCAACUCACAAGAGGGGGGGAAAACCCCUUUGCCCUCGAAAUCAACAGCUCGCAGUCAAG | -0.113
GGUCACGUCUCAAUCAACUCUUCGCCAGGAGUUUUCUCCUGCAUUUUCAACAGCUCGCAGUCAAG | -0.168
GGUCACGUCUCAAUCAACUCCAUAGAGGGGGGGAAAACCCCUUUACCCUCAUAAUCAACAGCUCGCAGUCAAG | -0.148
GGUCACGUCUCAAUCAACUCUUCUUCAGGAGUUUACUCCUGCUUUCUCAACAGCUCGCAGUCAAG | -0.0265
GGUCACGUCUCAAUCAACUCAUUAGAGGGGGGGAAAACCCCUUUACCCUCACAUUCAACAGCUCGCAGUCAAG | 0.258
GGUCACGUCUCAAUCAACUCAUAAGAGGGGGGGAAAACCCCUUUACCCUCACCGUCAACAGCUCGCAGUCAAG | -0.431
GGUCACGUCUCAAUCAACUCUUCUCCCAGGGAAAGCCCUGGCUAUUUCAACAGCUCGCAGUCAAG | -0.111
GGUCACGUCUCAAUCAACUCCAAAGAGGGGGGGAAAACCCCUUUACCCUCAAACUCAACAGCUCGCAGUCAAG | -0.0467
GGUCACGUCUCAAUCAACUCAUUCCCCAGGGAAACCCCUGGCAUACUCAACAGCUCGCAGUCAAG | 0.0461
GGUCACGUCUCAAUCAACUCUAUUUCCAGGGAAAACCCUGGUUUAUUCAACAGCUCGCAGUCAAG | -0.0119
GGUCACGUCUCAAUCAACUCAUCGUCCAGGGAAAACCCUGGCUUAUUCAACAGCUCGCAGUCAAG | 0.0837
GGUCACGUCUCAAUCAACUCAUCGUCAGGAGUUUUCUCCUGUAAUCUCAACAGCUCGCAGUCAAG | 0.0565
GGUCACGUCUCAAUCAACUCCAACGAGGGGGGGAAAACCCCUUUACCCUCACUAUCAACAGCUCGCAGUCAAG | -0.0606
GGUCACGUCUCAAUCAACUCCUUAGAGGGGGGGAAAACCCCUUUACCCUCCAUCUCAACAGCUCGCAGUCAAG | -0.284

Sequence | binding signal (log2 fold change)
GGUCACGUCUCAAUCAACUCUUCUUCCAGGGAAAGCCCUGGUUUAUUCAACAGCUCGCAGUCAAG | -0.251
GGUCACGUCUCAAUCAACUCAAUCUCAGGAGUUUUCUCCUGUAAUCUCAACAGCUCGCAGUCAAG | 0.00759
GGUCACGUCUCAAUCAACUCAUUCCCCAGGGAAACCCCUGGCAUUUUCAACAGCUCGCAGUCAAG | 0.165
GGUCACGUCUCAAUCAACUCAUUCUCCAGGGAAAACCCUGGCUAACUCAACAGCUCGCAGUCAAG | 0.123
GGUCACGUCUCAAUCAACUCUUUCCCAGGAGUUUUCUCCUGUAAUGUCAACAGCUCGCAGUCAAG | -0.191
GGUCACGUCUCAAUCAACUCAUCCCCCAGGGAAAUCCCUGGUUUACUCAACAGCUCGCAGUCAAG | -0.00885
GGUCACGUCUCAAUCAACUCAAAAGAGGGGGGGAAAACCCCUUUACCCUCGUAUUCAACAGCUCGCAGUCAAG | -0.357
GGUCACGUCUCAAUCAACUCAAUUCCAGGAGUUUCCUCCUGUAUACUCAACAGCUCGCAGUCAAG | 0.108
GGUCACGUCUCAAUCAACUCUACUUCCAGGGAAAACCCUGGCUAAUUCAACAGCUCGCAGUCAAG | 0.16
GGUCACGUCUCAAUCAACUCUUUCGAGGGGGGGAAAACCCCUUUACCCUCAUCUUCAACAGCUCGCAGUCAAG | 0.144
GGUCACGUCUCAAUCAACUCAUUCUCCAGGGAAACCCCUGGCAAACUCAACAGCUCGCAGUCAAG | -0.0125
GGUCACGUCUCAAUCAACUCAAUUCCCAGGGAAAUCCCUGGCAUACUCAACAGCUCGCAGUCAAG | -0.0497
GGUCACGUCUCAAUCAACUCAAUUCCCAGGGAAAGCCCUGGCUAAUUCAACAGCUCGCAGUCAAG | 0.143
GGUCACGUCUCAAUCAACUCAACUUCCAGGGAAAACCCUGGUAUUCUCAACAGCUCGCAGUCAAG | -0.0572
GGUCACGUCUCAAUCAACUCUAUCUCCAGGGAAACCCCUGGUUAAUUCAACAGCUCGCAGUCAAG | -0.228
GGUCACGUCUCAAUCAACUCAAUCCCCAGGGAAAUCCCUGGCUAUUUCAACAGCUCGCAGUCAAG | 0.193
GGUCACGUCUCAAUCAACUCUCUAGAGGGGGGGAAAACCCCUUUACCCUCCACGUCAACAGCUCGCAGUCAAG | -0.424
GGUCACGUCUCAAUCAACUCAAUCCCCAGGGAAACCCCUGGCAAUUUCAACAGCUCGCAGUCAAG | -0.197
GGUCACGUCUCAAUCAACUCAAUUUCCAGGGAAAUCCCUGGCUUUUUCAACAGCUCGCAGUCAAG | 0.0361
GGUCACGUCUCAAUCAACUCAUUCCCCAGGGAAAACCCUGGCUAAUUCAACAGCUCGCAGUCAAG | -0.181
GGUCACGUCUCAAUCAACUCUUCUUCCAGGGAAAUCCCUGGCUAACUCAACAGCUCGCAGUCAAG | -0.106
GGUCACGUCUCAAUCAACUCUUCGGAGGGGGGGAAAACCCCUUUACCCUCAUUUUCAACAGCUCGCAGUCAAG | 0.0856
GGUCACGUCUCAAUCAACUCCUAAGAGGGGGGGAAAACCCCUUUGCCCUCACCAUCAACAGCUCGCAGUCAAG | -0.181
